Test results: publication PMC4336329 (PLoS ONE, 2015)
In all, about 310,000 compounds went through this assay and about 2,200 (0.71%) showed an effect of 50% or more. Effects have a minus sign here. Some of the results follow.

Molecular target: human ether-à-go-go-related gene (hERG) potassium channel (human, UniProt Q12809)
Assay: primary screen, population patch clamp on CHO cells stably expressing hERG

Sequence of human ether-à-go-go-related gene (hERG) potassium channel (Q12809 whole entry, looked up): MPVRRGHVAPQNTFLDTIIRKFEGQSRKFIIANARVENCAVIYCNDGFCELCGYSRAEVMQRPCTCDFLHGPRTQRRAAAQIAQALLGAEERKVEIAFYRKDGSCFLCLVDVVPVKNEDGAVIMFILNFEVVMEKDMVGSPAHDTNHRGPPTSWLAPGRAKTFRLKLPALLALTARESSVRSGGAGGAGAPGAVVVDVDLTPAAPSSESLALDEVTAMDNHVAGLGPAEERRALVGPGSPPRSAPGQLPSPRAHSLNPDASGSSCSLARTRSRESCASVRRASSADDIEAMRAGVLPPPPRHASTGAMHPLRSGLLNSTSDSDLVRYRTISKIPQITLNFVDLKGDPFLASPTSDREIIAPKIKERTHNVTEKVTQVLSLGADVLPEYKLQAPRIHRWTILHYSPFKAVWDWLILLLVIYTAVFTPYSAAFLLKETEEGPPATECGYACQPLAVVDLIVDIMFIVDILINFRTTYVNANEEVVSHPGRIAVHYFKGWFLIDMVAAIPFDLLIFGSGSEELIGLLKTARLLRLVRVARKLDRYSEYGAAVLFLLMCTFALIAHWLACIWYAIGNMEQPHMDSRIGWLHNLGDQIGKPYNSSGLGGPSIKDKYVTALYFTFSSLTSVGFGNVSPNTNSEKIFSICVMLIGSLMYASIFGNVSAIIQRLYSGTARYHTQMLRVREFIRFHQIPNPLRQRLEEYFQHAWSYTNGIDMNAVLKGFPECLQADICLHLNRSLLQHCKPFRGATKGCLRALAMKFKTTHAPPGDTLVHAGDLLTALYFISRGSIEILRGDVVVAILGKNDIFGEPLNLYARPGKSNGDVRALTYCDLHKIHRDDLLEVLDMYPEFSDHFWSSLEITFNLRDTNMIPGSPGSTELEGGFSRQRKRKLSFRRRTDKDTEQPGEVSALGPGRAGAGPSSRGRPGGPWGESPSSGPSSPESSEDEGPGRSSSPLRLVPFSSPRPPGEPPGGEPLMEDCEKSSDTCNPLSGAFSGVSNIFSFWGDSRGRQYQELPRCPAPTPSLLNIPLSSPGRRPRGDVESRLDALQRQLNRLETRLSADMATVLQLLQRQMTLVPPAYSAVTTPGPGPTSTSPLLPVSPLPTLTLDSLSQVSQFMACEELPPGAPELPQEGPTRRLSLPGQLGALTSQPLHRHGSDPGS

Structure (SMILES) | hERG current change (%, negative = inhibition) at 1uM [%]
Cc1ccc(-c2noc(CCC(=O)NCc3ccc4c(c3)OCO4)n2)cc1 | 11.4
Cc1ccc(-c2c3c(=O)n(C)c(=O)n(C)c3cn2Cc2ccccc2)cc1 | -2.49
O=C(CSc1ccccn1)Nc1ccc(NC(=O)CSc2ccccn2)cc1 | 8.03
O=C(COC(=O)c1ccc2c(c1)OCCO2)NCCC1=CCCCC1 | -4.23
Cl.O=C(CSc1nnc(-c2ccccc2)n1C1CCCCC1)Nc1ccc(S(=O)(=O)Nc2ccccn2)cc1 | 1.7
COC(=O)CNC(=O)Cn1c(=O)n(Cc2ccc(F)cc2)c(=O)c2sccc21 | 12.4
CCN(CC)S(=O)(=O)c1ccc(C(=O)N2CCCCC2)cc1 | 23.7
CC1C(=O)Nc2ccccc2N1C(=O)c1ccccc1 (centres unmarked) | 12.6
O=C(CS(=O)(=O)Cc1ccccc1)Nc1ncccn1 | 13
O=C(CCCCCN1C(=O)c2ccccc2C1=O)Nc1nccs1 | -6.03
CS(=O)(=O)c1nc(S(=O)(=O)c2ccc(Cl)cc2)c(NCCCN2CCOCC2)s1 | 7.76
CC#CC[N+](C)(C)CCCCCCCCCC.[Br-] | 3.29
Cc1oc(-c2ccoc2)nc1CN(CC1CCC(=O)N1)C(C)C (centres unmarked) | 11.6
COc1ccc(-c2ccc(-c3noc(-c4cccs4)n3)c(OC)n2)cc1 | 5.36
COc1ccccc1NC(=O)Cc1ccsc1 | 14.5
COc1ccc(N2CCN(C(=O)NC(=O)c3ccccc3)CC2)cc1 | 7.62
O=C(Nc1cc(C(=O)N2CCCC2)ccc1N1CCCC1)c1ccccc1 | -83.5
COc1ccc(CNC(=O)C(c2ccco2)N(C(=O)c2snc(C(N)=O)c2N)c2cccc(OC)c2)cc1 (centres unmarked) | 13.3
Cc1c(/C(O)=C2\C(=O)C(=O)N(CCN(C)C)C2c2cccnc2)cnn1-c1ccccc1 (centres unmarked) | 0.231
COc1ccc(CCNC(=S)NCCc2ccc(OC)c(OC)c2)cc1OC | 5.3
CN1CCN(c2c(F)cc3c(=O)c(C(=O)[O-])cn4c3c2OCN4C)CC1 | 18.5
COc1ccc(OCc2cc(C(=O)N(C)CC3CCCCO3)no2)c(Cl)c1 (centres unmarked) | -1.77

Structure (SMILES) | hERG current change (%, negative = inhibition) at 1uM [%]
COc1ccc(NC(=O)Nc2ccccc2SC)cc1OC | 10.1
CCS(=O)(=O)N1Cc2ccccc2CC1C(=O)N1CCN(c2ccccc2)CC1 (centres unmarked) | -7.81
O=C(Cc1c(F)cccc1Cl)Nc1cccc(S(=O)(=O)NC2=NCCCCC2)c1 | 11.9
COc1ccccc1N1CCN(c2nc(N)c(C#N)c(CC#N)c2C#N)CC1 | -10.7
CC(=O)c1c(N2CCN(Cc3ccccc3)CC2)nc(=S)n(-c2ccccc2)c1C | 6.07
Cc1ccc(Cl)c(OCCN2CCCC(C)C2)c1.O=C(O)C(=O)O (centres unmarked) | 6.63
COc1ccccc1NS(=O)(=O)c1cc(NC(=O)CN2C(=O)NC3(CCCC3)C2=O)ccc1C | 1.57
COC(=O)c1ccccc1NC(=O)C1CCCC1 | -16.1
CC(C)[C@H]1C(=O)Nc2ccccc2N1C(=O)N[C@@H](Cc1ccccc1)C(=O)N[C@@H](Cc1ccccc1)C(=O)O | 11.6
CC(=O)Nc1ccc(S(=O)(=O)N(Cc2ccccc2)c2ccccc2)cc1 | 4.19
Cc1ccc(CC(=O)N(Cc2ccccc2)c2ccccn2)cc1 | 4.37
COc1ccc(/C=N/NC(=O)c2cccnc2)cc1CN1CCc2ccccc2C1 | 1.59
COc1ccc(C(=O)C(CCCCC(CN(C)C)C(=O)c2ccc(OC)cc2)CN(C)C)cc1.Cl (centres unmarked) | 3.54
CCCNC(=O)c1ccc(Cn2c(=S)[nH]c3c([nH]c4ccc(OC)cc43)c2=O)cc1 | -3.33
CC(CN1C(C)CCCC1C)OC(=O)c1ccc(F)cc1.Cl (centres unmarked) | 14.8
Cc1cccc(S(=O)(=O)C(C#N)c2nc3ccccc3nc2N2CCOCC2)c1 (centres unmarked) | 10.9
Cc1cc(C)nc(N/N=C/c2c(CO)cnc(C)c2O)n1 | -2.09
CC(C)c1ccccc1N1CC(C(=O)O)CC1=O (centres unmarked) | 20.7
O=C(Nc1ccccc1C(=O)Nc1ccncc1)c1cccc([N+](=O)[O-])c1 | 7.43
Brc1c(CSc2nncn2-c2ccccc2)nc2sccn12 | 9
COc1ccc(-c2nc(CSCC(=O)NCc3ccco3)c(C)o2)cc1 | 1.73
COc1ccc(C(CNC(=O)COc2ccccc2OC)N(C)C)cc1OC (centres unmarked) | 12.2
